One assay has as its system OVCAR4. Kind of assay: log2 surviving fraction (library drug vs vehicle, or drug + carboplatin vs carboplatin alone; relative to plate median); ovarian cancer lines: OVCAR4 is platinum-sensitive and Ov4Carbo platinum-resistant; higher = more cell survival. The conditions noted are these: library drug concentration 10 µM, 7 days.
The subject of the next assay is Ov4Carbo. Described as above. The conditions noted are these: library drug concentration 10 µM, 7 days.

Where a name gives a salt, the structure may show the parent alone. The list shows a part of the results. Many values rest on one well or one pass, so single values are uncertain.

Take `NCCNCCNCCNCCN` [Tetraethylenepentamine 5HCl]: the log2 surviving fraction with OVCAR4 (carboplatin co-treatment 0 µM) was -2.54; with OVCAR4 (carboplatin co-treatment 5 µM) it was -1.57; with Ov4Carbo (carboplatin co-treatment 0 µM) it was -2.03; in the assay with Ov4Carbo (carboplatin co-treatment 5 µM), -2.

`CC1(C)Cc2c(-c3ccccc3)c(-c3ccc(Cl)cc3)c(CC(=O)O)n2C1` [Licofelone]: the log2 surviving fraction was -1.5 in the assay with OVCAR4 (carboplatin co-treatment 0 µM), -0.69 in the assay with OVCAR4 (carboplatin co-treatment 5 µM), -0.126 in the assay on Ov4Carbo (carboplatin co-treatment 0 µM) and 0.267 in the assay on Ov4Carbo (carboplatin co-treatment 5 µM).

`C#C[C@]1(O)CC[C@H]2[C@@H]3CCC4=CC(=O)CC[C@@H]4[C@H]3CC[C@@]21C` [norethindrone]: the log2 surviving fraction with OVCAR4 (carboplatin co-treatment 0 µM) turned out to be 0.0755; with OVCAR4 (carboplatin co-treatment 5 µM), 0.279; in the assay with Ov4Carbo (carboplatin co-treatment 0 µM), 0.222; in the assay with Ov4Carbo (carboplatin co-treatment 5 µM) it was 0.478.

Regarding `CC(C)NCC(O)COc1cccc2[nH]ccc12` (stereo not given) [Pindolol], the log2 surviving fraction with OVCAR4 (carboplatin co-treatment 0 µM) is 0.0173; in the assay on OVCAR4 (carboplatin co-treatment 5 µM), 1.35; with Ov4Carbo (carboplatin co-treatment 0 µM), 0.0881; with Ov4Carbo (carboplatin co-treatment 5 µM), 0.0562.

As for `NC[C@H]1O[C@H](O[C@H]2[C@H](O)[C@@H](O[C@H]3O[C@H](CO)[C@@H](O)[C@H](N)[C@H]3O)[C@H](N)C[C@@H]2N)[C@H](N)[C@@H](O)[C@@H]1O` [Bekanamycin], the log2 surviving fraction in the assay with OVCAR4 (carboplatin co-treatment 0 µM) was -5.24; with OVCAR4 (carboplatin co-treatment 5 µM), -0.574; in the assay on Ov4Carbo (carboplatin co-treatment 0 µM), -0.0225; in the assay with Ov4Carbo (carboplatin co-treatment 5 µM) it was -1.02.

On to `CNC(=C[N+](=O)[O-])NCCSCc1ccc(CN(C)C)o1` [Ranitidine (Zantac)], for which the log2 surviving fraction in the assay on OVCAR4 (carboplatin co-treatment 0 µM) is 0.403; with OVCAR4 (carboplatin co-treatment 5 µM), 0.551; in the assay with Ov4Carbo (carboplatin co-treatment 0 µM), 0.953; with Ov4Carbo (carboplatin co-treatment 5 µM) it was 0.854.

With `O=P1(N(CCCl)CCCl)NCCCO1` (stereo not given) [Cyclophosphamide monohydrate], the log2 surviving fraction in the assay with OVCAR4 (carboplatin co-treatment 0 µM) came to 1.78; with OVCAR4 (carboplatin co-treatment 5 µM), 0.0944; with Ov4Carbo (carboplatin co-treatment 0 µM) it was 1.54; in the assay on Ov4Carbo (carboplatin co-treatment 5 µM) it was 0.748.

As to `O=C(O)Cc1ccccc1Nc1c(Cl)cccc1Cl` [Diclofenac], the log2 surviving fraction with OVCAR4 (carboplatin co-treatment 0 µM) was 0.000587; in the assay with OVCAR4 (carboplatin co-treatment 5 µM), -0.197; in the assay with Ov4Carbo (carboplatin co-treatment 0 µM), 0.308; with Ov4Carbo (carboplatin co-treatment 5 µM), 0.0945.

On to `Oc1ccc(OCc2ccccc2)cc1` [Monobenzone (Benoquin)], for which the log2 surviving fraction was -4.27 in the assay with OVCAR4 (carboplatin co-treatment 0 µM), -4.61 in the assay with OVCAR4 (carboplatin co-treatment 5 µM), -4.02 in the assay with Ov4Carbo (carboplatin co-treatment 0 µM) and -4.73 in the assay on Ov4Carbo (carboplatin co-treatment 5 µM).

Take `C[C@@H]1C[C@H]2[C@@H]3C[C@H](F)C4=CC(=O)C=C[C@]4(C)[C@@]3(F)[C@@H](O)C[C@]2(C)[C@@]1(O)C(=O)CO` [Flumethasone]: the log2 surviving fraction was 0.349 in the assay on OVCAR4 (carboplatin co-treatment 0 µM), -0.172 with OVCAR4 (carboplatin co-treatment 5 µM), 1.06 with Ov4Carbo (carboplatin co-treatment 0 µM) and 0.338 in the assay on Ov4Carbo (carboplatin co-treatment 5 µM).

Consider `C=CCc1cc(OC)c(O)c(C(=O)NCCO)c1` [Alibendol], for which the log2 surviving fraction is -0.263 in the assay with OVCAR4 (carboplatin co-treatment 0 µM), 1.01 in the assay on OVCAR4 (carboplatin co-treatment 5 µM), -1.37 in the assay on Ov4Carbo (carboplatin co-treatment 0 µM) and 0.825 in the assay on Ov4Carbo (carboplatin co-treatment 5 µM).

In the case of `CC(=O)O[C@]1(C(C)=O)CC[C@H]2[C@@H]3C[C@H](C)C4=CC(=O)CC[C@]4(C)[C@H]3CC[C@@]21C` [Medroxyprogesterone acetate], the log2 surviving fraction in the assay with OVCAR4 (carboplatin co-treatment 0 µM) turned out to be 0.83; with OVCAR4 (carboplatin co-treatment 5 µM) it was 0.636; in the assay with Ov4Carbo (carboplatin co-treatment 0 µM), 1.54; in the assay on Ov4Carbo (carboplatin co-treatment 5 µM) it was 1.18.

Turning to `COc1c(N2CCNC(C)C2)c(F)cc2c(=O)c(C(=O)O)cn(C3CC3)c12` (stereo not given) [Gatifloxacin], the log2 surviving fraction in the assay with OVCAR4 (carboplatin co-treatment 0 µM) is 0.566; in the assay with OVCAR4 (carboplatin co-treatment 5 µM), 0.0638; in the assay with Ov4Carbo (carboplatin co-treatment 0 µM), -1.16; in the assay with Ov4Carbo (carboplatin co-treatment 5 µM), -1.36.

Consider `CC(C(=O)O)c1ccc2c(c1)[nH]c1ccc(Cl)cc12` (stereo not given) [Carprofen], for which the log2 surviving fraction in the assay on OVCAR4 (carboplatin co-treatment 0 µM) is 0.615; with OVCAR4 (carboplatin co-treatment 5 µM), 0.576; with Ov4Carbo (carboplatin co-treatment 0 µM) it was 0.654; with Ov4Carbo (carboplatin co-treatment 5 µM) it was 1.54.

`C[C@@H](c1ncncc1F)[C@](O)(Cn1cncn1)c1ccc(F)cc1F` [Voriconazole]: the log2 surviving fraction in the assay on OVCAR4 (carboplatin co-treatment 0 µM) is -0.387; in the assay on OVCAR4 (carboplatin co-treatment 5 µM) it was 0.314; with Ov4Carbo (carboplatin co-treatment 0 µM) it was -0.63; in the assay with Ov4Carbo (carboplatin co-treatment 5 µM), 0.452.

Turning to `COc1cccc2c1C(=O)c1c(O)c3c(c(O)c1C2=O)C[C@@](O)(C(C)=O)C[C@@H]3O[C@H]1C[C@H](N)[C@H](O)[C@H](C)O1` [Daunorubicin HCl (Daunomycin HCl)], the log2 surviving fraction in the assay on OVCAR4 (carboplatin co-treatment 0 µM) was -9.7; in the assay on OVCAR4 (carboplatin co-treatment 5 µM), -8.54; in the assay on Ov4Carbo (carboplatin co-treatment 0 µM), -9.13; in the assay on Ov4Carbo (carboplatin co-treatment 5 µM) it was -8.47.

As for `C[C@@H]1CC[C@H]2[C@@H](C)C(=O)O[C@@H]3O[C@@]4(C)CC[C@@H]1[C@]32OO4` [Artemisinin], the log2 surviving fraction is -0.391 with OVCAR4 (carboplatin co-treatment 0 µM), -0.752 in the assay on OVCAR4 (carboplatin co-treatment 5 µM), -0.667 with Ov4Carbo (carboplatin co-treatment 0 µM) and 1.02 with Ov4Carbo (carboplatin co-treatment 5 µM).

Turning to `NCCS(=O)(=O)O` [Taurine], the log2 surviving fraction with OVCAR4 (carboplatin co-treatment 0 µM) is -0.255; with OVCAR4 (carboplatin co-treatment 5 µM), 0.896; in the assay with Ov4Carbo (carboplatin co-treatment 0 µM), -2.08; in the assay with Ov4Carbo (carboplatin co-treatment 5 µM) it was -0.309.

As for `NCC(=O)CCC(=O)O` [5-Aminolevulinic acid hydrochloride], the log2 surviving fraction in the assay on OVCAR4 (carboplatin co-treatment 0 µM) is 1.79; with OVCAR4 (carboplatin co-treatment 5 µM), 0.58; in the assay with Ov4Carbo (carboplatin co-treatment 0 µM), 0.444; in the assay on Ov4Carbo (carboplatin co-treatment 5 µM), 0.373.

For `CN1CCCC(n2nc(Cc3ccc(Cl)cc3)c3ccccc3c2=O)CC1` (stereo not given) [Azelastine hydrochloride (Astelin)], the log2 surviving fraction was -1.13 with OVCAR4 (carboplatin co-treatment 0 µM), -0.925 in the assay on OVCAR4 (carboplatin co-treatment 5 µM), -1.89 in the assay with Ov4Carbo (carboplatin co-treatment 0 µM) and -1.75 with Ov4Carbo (carboplatin co-treatment 5 µM).

For the compound `Cc1onc(-c2ccccc2Cl)c1C(=O)N[C@@H]1C(=O)N2[C@@H]1SC(C)(C)[C@@H]2C(=O)O` [Cloxacillin sodium (Cloxacap)], the log2 surviving fraction in the assay on OVCAR4 (carboplatin co-treatment 0 µM) was determined as 0.481; with OVCAR4 (carboplatin co-treatment 5 µM) it was 0.548; in the assay with Ov4Carbo (carboplatin co-treatment 0 µM), 1.2; with Ov4Carbo (carboplatin co-treatment 5 µM), 1.14.

For `Cc1c(Nc2ncccc2C(=O)O)cccc1C(F)(F)F` [Flunixin meglumin], the log2 surviving fraction in the assay with OVCAR4 (carboplatin co-treatment 0 µM) turned out to be 2.2; in the assay on OVCAR4 (carboplatin co-treatment 5 µM) it was 0.067; in the assay on Ov4Carbo (carboplatin co-treatment 0 µM), 0.863; in the assay with Ov4Carbo (carboplatin co-treatment 5 µM), 2.49.

With `CN1[C@@H]2CC[C@H]1C[C@@H](OC(=O)C(CO)c1ccccc1)C2` (stereo not given in full) [Atropine], the log2 surviving fraction in the assay on OVCAR4 (carboplatin co-treatment 0 µM) is -1.42; in the assay with OVCAR4 (carboplatin co-treatment 5 µM), -0.929; in the assay on Ov4Carbo (carboplatin co-treatment 0 µM) it was -0.528; in the assay on Ov4Carbo (carboplatin co-treatment 5 µM) it was -1.68.

Regarding `COC(=O)[C@H]1[C@H]2C[C@@H]3c4[nH]c5cc(OC)ccc5c4CCN3C[C@H]2C[C@@H](OC(=O)c2cc(OC)c(OC)c(OC)c2)[C@@H]1OC` [Reserpine], the log2 surviving fraction with OVCAR4 (carboplatin co-treatment 0 µM) is -7.97; in the assay with OVCAR4 (carboplatin co-treatment 5 µM), -1.93; in the assay with Ov4Carbo (carboplatin co-treatment 0 µM), -4.57; in the assay with Ov4Carbo (carboplatin co-treatment 5 µM), -4.03.

Regarding `Cc1ccnc2c1NC(=O)c1cccnc1N2C1CC1` [Nevirapine (Viramune)], the log2 surviving fraction in the assay with OVCAR4 (carboplatin co-treatment 0 µM) was 0.0122; in the assay with OVCAR4 (carboplatin co-treatment 5 µM), 0.558; in the assay with Ov4Carbo (carboplatin co-treatment 0 µM) it was 0.075; in the assay with Ov4Carbo (carboplatin co-treatment 5 µM), -0.626.

The record behind these values is the supplement of paper PMC8047034.
